Measured values reported in PMC4336329 (PLoS ONE, 2015).
About 14,000 (4.5%) of roughly 310,000 compounds showed an effect of 50% or more. Effects have a minus sign here. Some of the results follow.

The molecules below were run against human ether-à-go-go-related gene (hERG) potassium channel (human, UniProt Q12809) (assay: primary screen, population patch clamp on CHO cells stably expressing hERG).
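Further: peak tail current of the secondary pulse compared with the same well before compound.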

Sequence of human ether-à-go-go-related gene (hERG) potassium channel (Q12809 whole entry, looked up): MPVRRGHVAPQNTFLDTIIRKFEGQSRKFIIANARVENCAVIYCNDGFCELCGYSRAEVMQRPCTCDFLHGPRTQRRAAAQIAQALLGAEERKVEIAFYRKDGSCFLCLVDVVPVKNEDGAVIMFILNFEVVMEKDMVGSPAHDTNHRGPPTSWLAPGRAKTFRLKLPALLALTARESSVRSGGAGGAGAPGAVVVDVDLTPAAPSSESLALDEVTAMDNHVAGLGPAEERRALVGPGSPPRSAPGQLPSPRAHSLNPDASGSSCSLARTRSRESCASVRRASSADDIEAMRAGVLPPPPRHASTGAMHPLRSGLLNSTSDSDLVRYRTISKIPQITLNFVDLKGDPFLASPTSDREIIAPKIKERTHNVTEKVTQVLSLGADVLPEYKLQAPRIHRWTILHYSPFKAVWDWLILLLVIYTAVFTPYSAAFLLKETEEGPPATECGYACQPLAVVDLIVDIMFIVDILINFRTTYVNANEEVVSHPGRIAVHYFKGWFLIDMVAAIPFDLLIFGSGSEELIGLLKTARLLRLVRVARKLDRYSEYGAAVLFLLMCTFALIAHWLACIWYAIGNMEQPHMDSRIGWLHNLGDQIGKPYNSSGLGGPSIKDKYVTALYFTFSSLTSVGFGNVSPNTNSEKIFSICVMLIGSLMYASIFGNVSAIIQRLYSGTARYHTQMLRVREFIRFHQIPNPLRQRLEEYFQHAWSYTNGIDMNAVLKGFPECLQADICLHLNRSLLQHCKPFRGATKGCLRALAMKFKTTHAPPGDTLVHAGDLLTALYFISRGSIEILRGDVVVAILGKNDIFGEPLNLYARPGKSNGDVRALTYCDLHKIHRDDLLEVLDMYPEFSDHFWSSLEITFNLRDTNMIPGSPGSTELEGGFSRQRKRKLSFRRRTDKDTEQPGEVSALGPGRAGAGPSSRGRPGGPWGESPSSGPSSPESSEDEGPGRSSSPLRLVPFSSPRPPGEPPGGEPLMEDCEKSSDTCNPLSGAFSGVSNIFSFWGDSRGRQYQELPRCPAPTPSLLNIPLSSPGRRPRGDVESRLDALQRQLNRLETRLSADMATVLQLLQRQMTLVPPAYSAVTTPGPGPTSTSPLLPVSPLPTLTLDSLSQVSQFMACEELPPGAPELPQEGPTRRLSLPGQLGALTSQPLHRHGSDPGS

SMILES	hERG current change (%, negative = inhibition) at 10uM
N#Cc1cc2c(cc1NC(=O)CCn1cnnn1)OCO2	21.4%
CCN(Cc1nc2ccccc2c(=O)[nH]1)Cc1nc2cc(OC)c(OC)cc2c(=O)[nH]1	14.9%
O=C(Nc1cc([N+](=O)[O-])ccc1N1CCOCC1)c1cccs1	1.15%
Nc1nonc1C(=O)N/N=C/c1ccc(Br)o1	4.21%
Cc1cc(Nc2cccc(Cl)c2)n2ncnc2n1	-5.83%
O=c1oc2cc(OCc3ccc(C(F)(F)F)cc3)ccc2cc1-c1ccccn1	10.4%
CCOc1ccc(/C=N/NC(=O)CC(=O)Nc2ccc(Cl)c(Cl)c2)cc1	5.01%
CCOc1ccccc1NC(=O)c1ccc2c(c1)C(=O)N(CC)C2=O	5.07%
C=CCOc1ccc(/C(O)=C2/C(=O)C(=O)N(CCCN3CCOCC3)C2c2ccc(OC)cc2)cc1 (centres unmarked)	4.63%
CC(C)CC(=O)CC1(O)C(=O)Nc2ccccc21 (centres unmarked)	23.3%
O=C(CN(Cc1ccco1)C(=O)c1cccc(F)c1)Nc1ccccc1C(F)(F)F	-7.89%
CC(=O)Nc1ccc(S(=O)(=O)Oc2ccc(C(=S)N3CCCCC3)cc2)cc1	-16.6%
Cc1nnc(N(Cc2ccco2)C(=O)c2ccc(C#N)cc2)s1	-18.5%
CCOC(=O)c1nnn(-c2nonc2NC(C)=O)c1C	4.43%
CCOC(=O)c1c(NC(=O)C2c3ccccc3Oc3ccccc32)sc(C(N)=O)c1C	4.61%
COC(=O)n1c(=S)oc2cc(Cl)ccc21	8.11%
O=C(Nc1nnc(SCC(=O)N2CCCC2)s1)C1CC(=O)N(c2ccccc2)C1 (centres unmarked)	27.2%
COc1cccc(NC(=S)NN2C(C)CCCC2C)c1 (centres unmarked)	2.98%
Cc1nn(CCC(=O)NCCc2ccccc2Cl)c(=O)c2nn(-c3ccccc3)c(C)c12	10.8%
COc1ccc(-c2nnc(SCC(=O)c3[nH]c(C)c(C(C)=O)c3C)o2)cc1	8.59%
Oc1cccc(C(=S)N2CCC(Cc3ccccc3)CC2)c1	12.6%
CN(CC(=O)Nc1cccc(F)c1)C(=O)c1cccc(S(=O)(=O)N2CCN(c3ccccc3)CC2)c1	-23.4%
Cc1cccc(NS(=O)(=O)c2cccc(C(=O)N3CCCCCC3)c2)c1	-3.09%

SMILES	hERG current change (%, negative = inhibition) at 10uM
CC(C)(C)CC(=O)Nc1nnc(-c2cccs2)s1	7.4%
Cc1cnccc1NC(=O)c1cccs1	11%
COC(=O)c1ccccc1NC(=O)N1CCN(Cc2ccco2)CC1	6.81%
O=C(CCc1nnc2ccc(NCc3ccco3)nn12)Nc1ccccc1F	5.76%
NC(=O)SCC(=O)Nc1ccc(Cl)c(Cl)c1	11.9%
Cc1cc(/C=N/Nc2ccc([N+](=O)[O-])cn2)c(C)n1-c1cccc(C(=O)O)c1	23.7%
O=C(COc1ccc([N+](=O)[O-])cc1)NNC(=S)NC(=O)c1ccc(Br)cc1	-16.6%
O=C(Cn1nnc(-c2ccccc2)n1)N1CCN(c2ccc(F)cc2)CC1	-5.24%
COc1ccc(NC(=O)c2n[nH]c(=O)c3ccccc23)cc1S(=O)(=O)N1CCCCC1	2.57%
Cc1ccc(Cl)cc1NC(=O)COC(=O)C1CC1	-5.31%
Cc1cc(C)nc(SCc2nnc(SCC(=O)NCc3ccco3)n2-c2ccccc2)n1	-14.5%
CCOc1ccc(NC(=O)CCNC(=O)Cn2cnc3ccccc3c2=O)cc1	19.6%
COc1cccc(C(=O)Nc2ccccc2OC(F)(F)F)c1	6.11%
CC(C)(C)C(=O)NCC12C=CC(O1)C1C(=O)N(c3ccccc3)C(=O)C12 (centres unmarked)	3.87%
COc1ccc(NC(=O)CSc2nnc3ccc(-c4cccnc4)nn23)c(OC)c1	-12.5%
CCOC(=O)c1c(C)[nH]c(C)c1C(=O)CSc1nnc(-c2ccc(OC(F)F)cc2)o1	7.68%
Cc1ccc(-c2nc(CS(=O)CC(=O)NCc3ccco3)c(C)o2)cc1 (centres unmarked)	1.07%
CCCNC(=O)CN(C)C(=O)c1n[nH]c2ccccc12	-12.9%
CN1CCC(N(C)S(=O)(=O)c2ccc(NC(=O)Cc3ccc(F)cc3)cc2)CC1	2.41%
C[C@H]1COC2=C1C(=O)C(=O)c1c2ccc2c1CCCC2(C)C	2.83%
Cc1nnc(SCC(=O)NC2CCCc3ccccc32)n1-c1ccccc1 (centres unmarked)	-0.602%
O=C(Cn1nc(C(F)(F)F)c2c1CCCC2)NC1CCCC1	-13.2%
CCCCN=c1sc(C(=O)OC)cc(=O)n1CCCC	7.92%

SMILES	hERG current change (%, negative = inhibition) at 10uM
O=C(CN1CCN(c2ccccc2F)CC1)Nc1ccc2c(c1)CCC2	8.18%
Cc1csc2nc(SCC(=O)Nc3ccccc3F)[nH]c(=O)c12	24%
CSc1ccccc1NC(=S)NCc1ccc(Cl)cc1	-12.3%
CSc1nc2ncc3c(n2n1)CC1c2ccccc2CCN1C3=O (centres unmarked)	-45.4%
O=C(COC(=O)/C=C/c1ccc(Cl)cc1)NCCC1=CCCCC1	-0.806%
COc1cc(/C=C/C(=O)O)cc(S(=O)(=O)N2CCc3ccccc3C2)c1OC	16.6%
O=C(C1CCN(S(=O)(=O)c2cccs2)CC1)N1CCCC(C(F)(F)F)C1 (centres unmarked)	13.8%
CCn1c(SCC(=O)Nc2ccccc2-c2ccccc2)nnc1-c1ccoc1C	-22.4%
COc1ccccc1NC(=O)NNC(=O)c1ccc(-c2ccccc2)cc1	-14.7%
Cc1cc(Cl)nc(NC(=O)Nc2cccc(Cl)c2)n1	3.43%
CCOc1cc2nc(-c3ccc(OC)c(OC)c3)nc(NCCCN3CCOCC3)c2cc1OC	2.94%
CC12C(=O)N(c3nccs3)C(=O)C1C1C=CC2C1 (centres unmarked)	6.82%
CC(C)(C)NC(=O)COC(=O)c1ccccc1Nc1ccc(SC(F)F)cc1	-12%
COc1cccc(N/N=C/c2cccc(Br)c2O)c1	-11.1%
O=C(c1cccc(NC2=NC3CS(=O)(=O)CC3S2)c1)N1CCN(c2ncccn2)CC1 (centres unmarked)	11.7%
C/C(Cn1nnc([N+](=O)[O-])n1)=N\NC(=O)c1ccc(O)cc1O	16.8%
CCSC1=C(C#N)C(c2cccc(Br)c2)CC(=O)N1 (centres unmarked)	16%
COc1cccc(-c2nnc(NC(=O)c3cccc(F)c3)o2)c1	28.3%
COc1ccc(-c2[nH]ncc2CN2CCN(c3ccc(F)cc3)CC2)cc1	-45.7%
CCOc1ccccc1NC(=O)c1csc(C)c1C	-25.4%
Cc1cc(O)c(-c2cc(C(=O)Nc3cccnc3)[nH]n2)cc1C	20.2%
Cc1c(C(=S)Nc2ccccc2)cnn1-c1ccc([N+](=O)[O-])cc1	-32.7%
CC(C)c1ccc(/C=N/NC(=O)c2ccccn2)cc1	-19.7%

SMILES	hERG current change (%, negative = inhibition) at 10uM
CC(=O)N/C(=C/c1ccc2c(c1)OCO2)C(=O)NCCO	9.66%
Cl.O=C1CN=C(Nc2ccc(Cl)cc2)N1c1ccccc1	16.5%
O=c1c2[nH]c3ccc(F)cc3c2ncn1CCN1CCN(Cc2ccccc2)CC1	-63.2%
CC(C)[C@H](NC(=O)[C@@H]1CSC2c3ccccc3C(=O)N21)C(=O)NCc1ccco1 (some centres unmarked)	3.1%
Cc1ccc(Cl)cc1NC(=O)COC(=O)c1ccc(N2CCCC2)c([N+](=O)[O-])c1	-9.73%
Cc1ccc(CNS(=O)(=O)c2ccc(-c3cnc(C4CC4)o3)cc2)cc1	16.5%
CC1Cc2ccccc2N1Cc1nc2cc(C(F)(F)F)ccc2c(=O)[nH]1 (centres unmarked)	5.95%
COC(=O)c1ccc(NC(=O)CN(C)S(=O)(=O)c2ccc(OC)c(C)c2)cc1	12.9%
O=C(CCCc1nc(-c2ccc(Cl)cc2)no1)N1CCOCC1	-28.4%
COc1cccc(CC(=O)Nc2ccc(-c3csc(C)n3)cc2)c1	22%
CCOC(=O)C1CCN(Cc2ccccn2)CC1.O=C(O)C(=O)O	18.9%
Cc1ccc(N(CC(=O)NCc2ccccc2)C(=O)CCC(=O)Nc2nccs2)cc1	7.61%
O=C(NCc1ccco1)c1ccc(-c2ccc(Cl)cc2)o1	-2.08%
CCCN1CCC(=O)N(CCO)CC1	-3.79%
O=C(NCc1ccco1)C12CC3CC(CC(C3)C1)C2	6.18%
O=C(C1CCCN(Cc2ccccc2)C1)N1CCCCC1.O=C(O)C(=O)O (centres unmarked)	11.3%
C/C(=N\OCC(=O)NC12CC3CC(CC(C3)C1)C2)c1cc2ccccc2o1	5.38%
CC(c1ccco1)N(C(=O)c1ccccc1NS(=O)(=O)c1ccc(Cl)c([N+](=O)[O-])c1)c1ccccn1 (centres unmarked)	-6.14%
CC1=NN(c2cccc([N+](=O)[O-])c2)C(=O)C1	24.4%
O=C(CC(c1ccccc1)c1ccccc1)NCC(O)c1ccc([N+](=O)[O-])cc1 (centres unmarked)	-58.1%
